# Assay results as given in publication PMC4870812.
# By UniProt entry, the sequences of proteins in these tests, tags left out.
# UniProt Q8TDY2: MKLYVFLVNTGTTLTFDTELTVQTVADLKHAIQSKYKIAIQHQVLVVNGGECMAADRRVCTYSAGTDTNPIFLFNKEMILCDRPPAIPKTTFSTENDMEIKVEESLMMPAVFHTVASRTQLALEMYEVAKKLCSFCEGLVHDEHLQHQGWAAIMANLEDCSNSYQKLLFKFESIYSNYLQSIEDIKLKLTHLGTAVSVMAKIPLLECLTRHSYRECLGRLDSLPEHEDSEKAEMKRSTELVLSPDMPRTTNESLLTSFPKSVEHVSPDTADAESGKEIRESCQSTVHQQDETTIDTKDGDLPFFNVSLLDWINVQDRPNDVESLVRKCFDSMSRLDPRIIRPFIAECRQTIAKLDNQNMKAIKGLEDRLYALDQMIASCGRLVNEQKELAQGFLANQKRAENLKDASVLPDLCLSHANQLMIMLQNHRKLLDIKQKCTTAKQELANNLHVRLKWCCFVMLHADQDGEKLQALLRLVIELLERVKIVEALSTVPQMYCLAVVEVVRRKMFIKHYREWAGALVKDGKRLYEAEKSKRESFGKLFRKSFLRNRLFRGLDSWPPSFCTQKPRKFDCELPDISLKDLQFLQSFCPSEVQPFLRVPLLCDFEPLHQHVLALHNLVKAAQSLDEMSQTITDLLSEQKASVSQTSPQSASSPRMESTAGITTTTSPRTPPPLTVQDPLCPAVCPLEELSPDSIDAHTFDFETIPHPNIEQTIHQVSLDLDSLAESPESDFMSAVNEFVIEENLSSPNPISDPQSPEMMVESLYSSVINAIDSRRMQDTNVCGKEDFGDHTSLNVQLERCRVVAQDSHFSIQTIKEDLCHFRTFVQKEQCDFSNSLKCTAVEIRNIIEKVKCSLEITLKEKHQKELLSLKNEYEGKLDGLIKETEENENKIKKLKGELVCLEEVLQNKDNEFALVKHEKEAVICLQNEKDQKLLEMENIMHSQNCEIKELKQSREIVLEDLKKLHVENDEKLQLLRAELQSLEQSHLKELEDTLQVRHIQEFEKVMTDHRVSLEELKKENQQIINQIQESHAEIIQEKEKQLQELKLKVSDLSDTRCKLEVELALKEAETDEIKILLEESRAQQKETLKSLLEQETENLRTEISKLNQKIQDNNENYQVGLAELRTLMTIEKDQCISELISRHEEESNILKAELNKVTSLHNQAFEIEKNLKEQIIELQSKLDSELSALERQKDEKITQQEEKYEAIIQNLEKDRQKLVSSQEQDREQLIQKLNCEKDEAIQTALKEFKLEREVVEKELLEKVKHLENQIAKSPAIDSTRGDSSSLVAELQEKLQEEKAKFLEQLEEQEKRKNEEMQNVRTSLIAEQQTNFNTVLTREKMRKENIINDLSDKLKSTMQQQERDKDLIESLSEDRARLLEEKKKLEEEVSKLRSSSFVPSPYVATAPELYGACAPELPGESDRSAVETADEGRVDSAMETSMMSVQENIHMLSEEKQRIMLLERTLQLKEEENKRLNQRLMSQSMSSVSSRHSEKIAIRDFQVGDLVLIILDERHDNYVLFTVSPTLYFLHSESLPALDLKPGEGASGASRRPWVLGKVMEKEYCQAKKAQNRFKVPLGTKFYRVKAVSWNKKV
# These are yes or no findings as the source states them, for the method shown. In cells and extracts the contact can be indirect. Some results given as binding are weak or reduced against the parent protein; the word gives no strength. Tags and fused reporters may be left off the sequences shown.
# T1: SMCR8-GFP (human) (UniProt Q8TEV9)
# T1 sequence: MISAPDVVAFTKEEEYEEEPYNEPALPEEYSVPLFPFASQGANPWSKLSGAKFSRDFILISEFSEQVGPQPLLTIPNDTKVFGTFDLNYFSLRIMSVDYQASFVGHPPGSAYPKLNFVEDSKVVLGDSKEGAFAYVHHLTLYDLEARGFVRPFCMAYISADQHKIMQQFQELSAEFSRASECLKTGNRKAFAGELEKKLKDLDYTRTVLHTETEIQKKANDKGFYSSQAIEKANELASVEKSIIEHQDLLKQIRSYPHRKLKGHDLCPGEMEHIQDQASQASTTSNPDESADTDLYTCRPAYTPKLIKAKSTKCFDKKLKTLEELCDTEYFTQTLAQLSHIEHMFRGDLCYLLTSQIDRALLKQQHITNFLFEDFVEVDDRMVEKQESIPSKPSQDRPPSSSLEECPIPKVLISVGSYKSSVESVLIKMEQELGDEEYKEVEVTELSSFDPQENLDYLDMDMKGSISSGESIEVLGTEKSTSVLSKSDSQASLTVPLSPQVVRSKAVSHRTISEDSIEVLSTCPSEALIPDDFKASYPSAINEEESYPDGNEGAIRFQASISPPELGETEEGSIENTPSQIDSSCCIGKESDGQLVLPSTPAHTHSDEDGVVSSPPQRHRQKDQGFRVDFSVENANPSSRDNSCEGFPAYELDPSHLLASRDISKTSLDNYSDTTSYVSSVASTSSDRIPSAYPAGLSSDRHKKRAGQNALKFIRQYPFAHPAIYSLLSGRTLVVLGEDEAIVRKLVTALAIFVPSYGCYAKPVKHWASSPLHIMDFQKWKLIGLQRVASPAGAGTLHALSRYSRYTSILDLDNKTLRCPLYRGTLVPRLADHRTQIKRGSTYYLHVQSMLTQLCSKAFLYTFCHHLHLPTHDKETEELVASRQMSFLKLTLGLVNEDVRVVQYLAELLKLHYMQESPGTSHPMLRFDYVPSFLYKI
# T2: GFP-tagged human C9orf72 isoform II (GFP-C9-S) (human) (UniProt Q96LT7)
# T2 sequence: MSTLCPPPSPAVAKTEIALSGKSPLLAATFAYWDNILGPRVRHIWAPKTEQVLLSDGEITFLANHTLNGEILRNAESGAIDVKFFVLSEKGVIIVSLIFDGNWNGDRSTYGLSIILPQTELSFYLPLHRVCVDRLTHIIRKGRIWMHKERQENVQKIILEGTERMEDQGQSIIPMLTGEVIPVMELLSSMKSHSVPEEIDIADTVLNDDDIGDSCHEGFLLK
# T3: GFP-tagged human C9orf72 isoform I (GFP-C9-L), expressed in HEK293T cells (human) (UniProt Q96LT7)
# T3 sequence: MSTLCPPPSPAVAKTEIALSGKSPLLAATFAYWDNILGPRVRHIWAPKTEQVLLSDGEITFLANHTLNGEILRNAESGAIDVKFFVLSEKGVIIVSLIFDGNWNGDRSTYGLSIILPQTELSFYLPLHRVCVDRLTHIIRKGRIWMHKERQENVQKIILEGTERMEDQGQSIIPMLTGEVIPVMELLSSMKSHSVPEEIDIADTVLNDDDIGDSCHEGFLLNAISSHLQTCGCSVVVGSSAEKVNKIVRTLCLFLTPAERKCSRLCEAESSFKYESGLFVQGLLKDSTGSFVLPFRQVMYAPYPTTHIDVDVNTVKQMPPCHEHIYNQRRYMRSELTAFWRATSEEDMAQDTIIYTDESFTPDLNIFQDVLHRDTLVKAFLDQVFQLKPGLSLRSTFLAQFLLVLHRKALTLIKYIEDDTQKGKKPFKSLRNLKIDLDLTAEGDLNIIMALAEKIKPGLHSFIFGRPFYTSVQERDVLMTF
# Legend:
# SMCR8-GFP (human) [1] = biological target: T1, SMCR8-GFP (human); assay: co-IP; HEK293T transfected with FLAG-FIP200, SMCR8 and C9orf72, with or without WDR41; lysed 40 h after transfection; anti-GFP immunoprecipitation; Western blot (Fig. 4a)
# SMCR8-GFP (human) [2] = biological target: T1, SMCR8-GFP (human); assay: co-IP; HEK293T transfected with FLAG-FIP200 and SMCR8 only; lysed 40 h after transfection; anti-GFP immunoprecipitation; Western blot (Fig. 4a)
# FLAG-FIP200 (human) = FLAG-FIP200 (human) (UniProt Q8TDY2); assay: co-IP; HEK293T transfected as indicated with FLAG-FIP200 and C9orf72, SMCR8, WDR41; anti-FLAG immunoprecipitation; Western blot (Fig. 4b)
# [3] = biological target: C9orf72/SMCR8/WDR41 (co-expressed, precipitated with anti-GFP; Fig. 4c, d) (human) (UniProt Q96LT7+Q8TEV9+Q9HAD4); assay: co-IP; HEK293T transfected as indicated with C9orf72/SMCR8/WDR41 and ATG101 or ATG13; anti-GFP immunoprecipitation; Western blot (Fig. 4c, d)
# [4] = biological target: T2, GFP-tagged human C9orf72 isoform II (GFP-C9-S) (human); assay: co-IP; HEK293T, only the two proteins co-expressed; lysis in 50 mM Tris pH 8.0, 150 mM NaCl, 1 % Triton X-100, 0.1 % deoxycholic acid; GFP-Trap (anti-GFP) beads 2-3 h at 4 °C; Western blot (Fig. 2a and the lanes of Fig. 2b, c without the third protein)
# [5] = biological target: T3, GFP-tagged human C9orf72 isoform I (GFP-C9-L), expressed in HEK293T cells (human); assay: as above
molecule,measurement,setting,value
FLAG-FIP200 (from UniProt Q8TDY2 1-1594),binding,SMCR8-GFP (human) [1],binds
same,binding,SMCR8-GFP (human) [2],binds weakly
"C9orf72 (construct of Fig. 4b, tag not told in the text) (protein, UniProt Q96LT7 1-481) MSTLCPPPSPAVAKTEIALSGKSPLLAATFAYWDNILGPRVRHIWAPKTEQVLLSDGEITFLANHTLNGEILRNAESGAIDVKFFVLSEKGVIIVSLIFDGNWNGDRSTYGLSIILPQTELSFYLPLHRVCVDRLTHIIRKGRIWMHKERQENVQKIILEGTERMEDQGQSIIPMLTGEVIPVMELLSSMKSHSVPEEIDIADTVLNDDDIGDSCHEGFLLNAISSHLQTCGCSVVVGSSAEKVNKIVRTLCLFLTPAERKCSRLCEAESSFKYESGLFVQGLLKDSTGSFVLPFRQVMYAPYPTTHIDVDVNTVKQMPPCHEHIYNQRRYMRSELTAFWRATSEEDMAQDTIIYTDESFTPDLNIFQDVLHRDTLVKAFLDQVFQLKPGLSLRSTFLAQFLLVLHRKALTLIKYIEDDTQKGKKPFKSLRNLKIDLDLTAEGDLNIIMALAEKIKPGLHSFIFGRPFYTSVQERDVLMTF",binding,FLAG-FIP200 (human),binds
"SMCR8 (construct of Fig. 4b, tag not told in the text) (protein, UniProt Q8TEV9 1-937) MISAPDVVAFTKEEEYEEEPYNEPALPEEYSVPLFPFASQGANPWSKLSGAKFSRDFILISEFSEQVGPQPLLTIPNDTKVFGTFDLNYFSLRIMSVDYQASFVGHPPGSAYPKLNFVEDSKVVLGDSKEGAFAYVHHLTLYDLEARGFVRPFCMAYISADQHKIMQQFQELSAEFSRASECLKTGNRKAFAGELEKKLKDLDYTRTVLHTETEIQKKANDKGFYSSQAIEKANELASVEKSIIEHQDLLKQIRSYPHRKLKGHDLCPGEMEHIQDQASQASTTSNPDESADTDLYTCRPAYTPKLIKAKSTKCFDKKLKTLEELCDTEYFTQTLAQLSHIEHMFRGDLCYLLTSQIDRALLKQQHITNFLFEDFVEVDDRMVEKQESIPSKPSQDRPPSSSLEECPIPKVLISVGSYKSSVESVLIKMEQELGDEEYKEVEVTELSSFDPQENLDYLDMDMKGSISSGESIEVLGTEKSTSVLSKSDSQASLTVPLSPQVVRSKAVSHRTISEDSIEVLSTCPSEALIPDDFKASYPSAINEEESYPDGNEGAIRFQASISPPELGETEEGSIENTPSQIDSSCCIGKESDGQLVLPSTPAHTHSDEDGVVSSPPQRHRQKDQGFRVDFSVENANPSSRDNSCEGFPAYELDPSHLLASRDISKTSLDNYSDTTSYVSSVASTSSDRIPSAYPAGLSSDRHKKRAGQNALKFIRQYPFAHPAIYSLLSGRTLVVLGEDEAIVRKLVTALAIFVPSYGCYAKPVKHWASSPLHIMDFQKWKLIGLQRVASPAGAGTLHALSRYSRYTSILDLDNKTLRCPLYRGTLVPRLADHRTQIKRGSTYYLHVQSMLTQLCSKAFLYTFCHHLHLPTHDKETEELVASRQMSFLKLTLGLVNEDVRVVQYLAELLKLHYMQESPGTSHPMLRFDYVPSFLYKI",binding,FLAG-FIP200 (human),binds
"WDR41 (construct of Fig. 4b, tag not told in the text) (protein, UniProt Q9HAD4 1-459) MLRWLIGGGREPQGLAEKSPLQTIGEEQTQNPYTELLVLKAHHDIVRFLVQLDDYRFASAGDDGIVVVWNAQTGEKLLELNGHTQKITAIITFPSLESCEEKNQLILTASADRTVIVWDGDTTRQVQRISCFQSTVKCLTVLQRLDVWLSGGNDLCVWNRKLDLLCKTSHLSDTGISALVEIPKNCVVAAVGKELIIFRLVAPTEGSLEWDILEVKRLLDHQDNILSLINVNDLSFVTGSHVGELIIWDALDWTMQAYERNFWDPSPQLDTQQEIKLCQKSNDISIHHFTCDEENVFAAVGRGLYVYSLQMKRVIACQKTAHDSNVLHVARLPNRQLISCSEDGSVRIWELREKQQLAAEPVPTGFFNMWGFGRVSKQASQPVKKQQENATSCSLELIGDLIGHSSSVEMFLYFEDHGLVTCSADHLIILWKNGERESGLRSLRLFQKLEENGDLYLAV",binding,FLAG-FIP200 (human),binds
"FLAG-ATG101 (protein, UniProt Q9BSB4 1-218) MNCRSEVLEVSVEGRQVEEAMLAVLHTVLLHRSTGKFHYKKEGTYSIGTVGTQDVDCDFIDFTYVRVSSEELDRALRKVVGEFKDALRNSGGDGLGQMSLEFYQKKKSRWPFSDECIPWEVWTVKVHVVALATEQERQICREKVGEKLCEKIINIVEVMNRHEYLPKMPTQSEVDNVFDTGLRDVQPYLYKISFQITDALGTSVTTTMRRLIKDTLAL",binding,[3],binds
"SMCR8-myc (protein, UniProt Q8TEV9 1-937) MISAPDVVAFTKEEEYEEEPYNEPALPEEYSVPLFPFASQGANPWSKLSGAKFSRDFILISEFSEQVGPQPLLTIPNDTKVFGTFDLNYFSLRIMSVDYQASFVGHPPGSAYPKLNFVEDSKVVLGDSKEGAFAYVHHLTLYDLEARGFVRPFCMAYISADQHKIMQQFQELSAEFSRASECLKTGNRKAFAGELEKKLKDLDYTRTVLHTETEIQKKANDKGFYSSQAIEKANELASVEKSIIEHQDLLKQIRSYPHRKLKGHDLCPGEMEHIQDQASQASTTSNPDESADTDLYTCRPAYTPKLIKAKSTKCFDKKLKTLEELCDTEYFTQTLAQLSHIEHMFRGDLCYLLTSQIDRALLKQQHITNFLFEDFVEVDDRMVEKQESIPSKPSQDRPPSSSLEECPIPKVLISVGSYKSSVESVLIKMEQELGDEEYKEVEVTELSSFDPQENLDYLDMDMKGSISSGESIEVLGTEKSTSVLSKSDSQASLTVPLSPQVVRSKAVSHRTISEDSIEVLSTCPSEALIPDDFKASYPSAINEEESYPDGNEGAIRFQASISPPELGETEEGSIENTPSQIDSSCCIGKESDGQLVLPSTPAHTHSDEDGVVSSPPQRHRQKDQGFRVDFSVENANPSSRDNSCEGFPAYELDPSHLLASRDISKTSLDNYSDTTSYVSSVASTSSDRIPSAYPAGLSSDRHKKRAGQNALKFIRQYPFAHPAIYSLLSGRTLVVLGEDEAIVRKLVTALAIFVPSYGCYAKPVKHWASSPLHIMDFQKWKLIGLQRVASPAGAGTLHALSRYSRYTSILDLDNKTLRCPLYRGTLVPRLADHRTQIKRGSTYYLHVQSMLTQLCSKAFLYTFCHHLHLPTHDKETEELVASRQMSFLKLTLGLVNEDVRVVQYLAELLKLHYMQESPGTSHPMLRFDYVPSFLYKI",binding,[4],no binding
same,binding,[5],binds
